# Measurements from the supplement of paper PMC8728848.
# The list shows a part of the results.
# B1: SpnanA (Streptococcus pneumoniae), P62575 (protein)
# chain: MVIEKEDVETNASNGQRVDLSSELDKLKKLENATVHMEFKPDAKAPAFYNLFSVSSATKKDEYFTMAVYNNTATLEGRGSDGKQFYNNYNDAPLKVKPGQWNSVTFTVEKPTAELPKGRVRLYVNGVLSRTSLRSGNFIKDMPDVTHVQIGATKRANNTVWGSNLQIRNLTVYNRALTPEEVQKRS
# Columns and labels:
# Experiment in all cases: glycan array binding signal (z-score within array); higher = stronger binding
# Conditions in all cases: glycan notation: IUPAC condensed, linker removed
# [1] = molecular target: Gal(b1-4)GlcNAc(b1-2)[Gal(b1-4)GlcNAc(b1-4)]Man(a1-3)[Gal(b1-4)GlcNAc(b1-2)[Gal(b1-4)GlcNAc(b1-6)]Man(a1-6)]Man(b1-4)GlcNAc(b1-4)GlcNAc
# How it was run: (§1)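 The binding signal is a Z-score computed within each array. Data were drawn from 3228 arrays in the Consortium for Functional Glycomics database, restricted to those with a known protein sequence. Scores were averaged over arrays of the same protein sequence at different concentrations or buffers, and over linkers, and negative values can be taken as non-binding.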
# [2] = molecular target: Gal(b1-4)GlcNAc(b1-2)[Gal(b1-4)GlcNAc(b1-4)]Man(a1-3)[GlcNAc(b1-4)][Gal(b1-4)GlcNAc(b1-2)Man(a1-6)]Man(b1-4)GlcNAc(b1-4)GlcNAc
# How it was run: as §1
# [3] = molecular target: Gal(b1-4)GlcNAc(b1-2)[Gal(b1-4)GlcNAc(b1-4)]Man(a1-3)[GlcNAc(b1-4)][Gal(b1-4)GlcNAc(b1-2)[Gal(b1-4)GlcNAc(b1-6)]Man(a1-6)]Man(b1-4)GlcNAc(b1-4)GlcNAc
# How it was run: as §1
# [4] = molecular target: Gal(b1-4)GlcNAc(b1-2)[Gal(b1-4)GlcNAc(b1-4)]Man(a1-3)[GlcNAc(b1-4)][Gal(b1-4)GlcNAc(b1-2)[Gal(b1-4)GlcNAc(b1-6)]Man(a1-6)]Man(b1-4)GlcNAc(b1-4)[Fuc(a1-6)]GlcNAc
# How it was run: as §1
# [5] = molecular target: Gal(b1-4)GlcNAc(b1-2)[Gal(b1-4)GlcNAc(b1-6)]Man(a1-6)[Gal(b1-4)GlcNAc(b1-2)Man(a1-3)]Man(b1-4)GlcNAc(b1-4)GlcNAc
# How it was run: as §1
# [6] = molecular target: Gal(b1-4)GlcNAc(b1-2)[Gal(b1-4)GlcNAc(b1-6)]Man(a1-6)[Gal(b1-4)GlcNAc(b1-2)Man(a1-3)]Man(b1-4)GlcNAc(b1-4)[Fuc(a1-6)]GlcNAc
# How it was run: as §1
# [7] = molecular target: Gal(b1-4)GlcNAc(b1-2)[Gal(b1-4)GlcNAc(b1-6)]Man(a1-6)[GlcNAc(b1-4)][Gal(b1-4)GlcNAc(b1-2)Man(a1-3)]Man(b1-4)GlcNAc(b1-4)GlcNAc
# How it was run: as §1
# [8] = molecular target: Gal(b1-4)GlcNAc(b1-3)Gal(b1-3)GlcNAc
# How it was run: as §1
# [9] = molecular target: Gal(b1-4)GlcNAc(b1-3)Gal(b1-4)Glc
# How it was run: as §1
# [10] = molecular target: Gal(b1-4)GlcNAc(b1-3)Gal(b1-4)GlcNAc
# How it was run: as §1
# [11] = molecular target: Gal(b1-4)GlcNAc(b1-3)Gal(b1-4)GlcNAc(b1-3)Gal(b1-4)GlcNAc
# How it was run: as §1
# [12] = molecular target: Gal(b1-4)GlcNAc(b1-3)Gal(b1-4)[Fuc(a1-3)GlcNAc(b1-6)]Gal(b1-4)Glc
# How it was run: as §1
# [13] = molecular target: Gal(b1-4)GlcNAc(b1-3)Gal(b1-4)[Fuc(a1-3)]GlcNAc(b1-3)Gal(b1-4)[Fuc(a1-3)]GlcNAc
# How it was run: as §1
# [14] = molecular target: Gal(b1-4)GlcNAc(b1-3)GalNAc
# How it was run: as §1
# [15] = molecular target: Gal(b1-4)GlcNAc(b1-3)[Gal(b1-4)GlcNAc(b1-6)]Gal(b1-4)GlcNAc
# How it was run: as §1
# [16] = molecular target: Gal(b1-4)GlcNAc(b1-3)[Gal(b1-4)GlcNAc(b1-6)]GalNAc
# How it was run: as §1
# [17] = molecular target: Gal(b1-4)GlcNAc(b1-3)[GlcNAc(b1-6)]Gal(b1-4)GlcNAc
# How it was run: as §1
# [18] = molecular target: Gal(b1-4)GlcNAc(b1-6)Gal(b1-4)GlcNAc
# How it was run: as §1
# [19] = molecular target: Gal(b1-4)GlcNAc(b1-6)GalNAc
# How it was run: as §1
# [20] = molecular target: Gal(b1-4)GlcNAc(b1-6)[Gal(b1-3)]GalNAc
# How it was run: as §1
# Gal(b1-4)GlcNAc6P = molecular target: Gal(b1-4)GlcNAc6P
# How it was run: as §1
# Gal(b1-6)Gal = molecular target: Gal(b1-6)Gal
# How it was run: as §1
# Gal3S(b1-3)GalNAc = molecular target: Gal3S(b1-3)GalNAc
# How it was run: as §1
# Gal3S(b1-3)GlcNAc = molecular target: Gal3S(b1-3)GlcNAc
# How it was run: as §1
# [21] = molecular target: Gal3S(b1-3)[Fuc(a1-4)]GlcNAc
# How it was run: as §1
# Gal3S(b1-4)Glc = molecular target: Gal3S(b1-4)Glc
# How it was run: as §1
# Gal3S(b1-4)Glc6S = molecular target: Gal3S(b1-4)Glc6S
# How it was run: as §1
# Gal3S(b1-4)GlcNAc = molecular target: Gal3S(b1-4)GlcNAc
# How it was run: as §1
# Gal3S(b1-4)GlcNAc6S = molecular target: Gal3S(b1-4)GlcNAc6S
# How it was run: as §1
# [22] = molecular target: Gal3S(b1-4)[Fuc(a1-3)]Glc
# How it was run: as §1
# [23] = molecular target: Gal3S(b1-4)[Fuc(a1-3)]Glc6S
# How it was run: as §1
# Gal3S4S(b1-4)GlcNAc = molecular target: Gal3S4S(b1-4)GlcNAc
# How it was run: as §1
# Gal3S6S(b1-4)GlcNAc = molecular target: Gal3S6S(b1-4)GlcNAc
# How it was run: as §1
# Gal3S6S(b1-4)GlcNAc6S = molecular target: Gal3S6S(b1-4)GlcNAc6S
# How it was run: as §1
# Gal4S(b1-4)GlcNAc = molecular target: Gal4S(b1-4)GlcNAc
# How it was run: as §1
# Gal4S6S(b1-4)GlcNAc = molecular target: Gal4S6S(b1-4)GlcNAc
# How it was run: as §1
# Gal6P(b1-4)GlcNAc = molecular target: Gal6P(b1-4)GlcNAc
# How it was run: as §1
# Gal6S(b1-3)GlcNAc = molecular target: Gal6S(b1-3)GlcNAc
# How it was run: as §1
# Gal6S(b1-3)GlcNAc6S = molecular target: Gal6S(b1-3)GlcNAc6S
# How it was run: as §1
# Gal6S(b1-4)Glc = molecular target: Gal6S(b1-4)Glc
# How it was run: as §1
# Gal6S(b1-4)Glc6S = molecular target: Gal6S(b1-4)Glc6S
# How it was run: as §1
# Gal6S(b1-4)GlcNAc = molecular target: Gal6S(b1-4)GlcNAc
# How it was run: as §1
# Gal6S(b1-4)GlcNAc6S = molecular target: Gal6S(b1-4)GlcNAc6S
# How it was run: as §1
# GalNAc(a1-3)Gal = molecular target: GalNAc(a1-3)Gal
# How it was run: as §1
# GalNAc(a1-3)GalNAc = molecular target: GalNAc(a1-3)GalNAc
# How it was run: as §1
binder,measurement,setting,value
B1,glycan array binding signal (z-score),[1],-0.283
same,glycan array binding signal (z-score),[2],-0.277
same,glycan array binding signal (z-score),[3],-0.353
same,glycan array binding signal (z-score),[4],-0.34
same,glycan array binding signal (z-score),[5],-0.36
same,glycan array binding signal (z-score),[6],-0.292
same,glycan array binding signal (z-score),[7],-0.271
same,glycan array binding signal (z-score),[8],-0.281
same,glycan array binding signal (z-score),[9],-0.28
same,glycan array binding signal (z-score),[10],-0.211
same,glycan array binding signal (z-score),[11],-0.282
same,glycan array binding signal (z-score),[12],-0.274
same,glycan array binding signal (z-score),[13],-0.133
same,glycan array binding signal (z-score),[14],-0.161
same,glycan array binding signal (z-score),[15],-0.322
same,glycan array binding signal (z-score),[16],-0.281
same,glycan array binding signal (z-score),[17],-0.29
same,glycan array binding signal (z-score),[18],-0.245
same,glycan array binding signal (z-score),[19],-0.295
same,glycan array binding signal (z-score),[20],-0.25
same,glycan array binding signal (z-score),Gal(b1-4)GlcNAc6P,-0.289
same,glycan array binding signal (z-score),Gal(b1-6)Gal,-0.199
same,glycan array binding signal (z-score),Gal3S(b1-3)GalNAc,-0.259
same,glycan array binding signal (z-score),Gal3S(b1-3)GlcNAc,-0.27
same,glycan array binding signal (z-score),[21],-0.18
same,glycan array binding signal (z-score),Gal3S(b1-4)Glc,-0.238
same,glycan array binding signal (z-score),Gal3S(b1-4)Glc6S,-0.248
same,glycan array binding signal (z-score),Gal3S(b1-4)GlcNAc,-0.171
same,glycan array binding signal (z-score),Gal3S(b1-4)GlcNAc6S,-0.248
same,glycan array binding signal (z-score),[22],-0.145
same,glycan array binding signal (z-score),[23],-0.119
same,glycan array binding signal (z-score),Gal3S4S(b1-4)GlcNAc,-0.194
same,glycan array binding signal (z-score),Gal3S6S(b1-4)GlcNAc,-0.275
same,glycan array binding signal (z-score),Gal3S6S(b1-4)GlcNAc6S,-0.297
same,glycan array binding signal (z-score),Gal4S(b1-4)GlcNAc,-0.169
same,glycan array binding signal (z-score),Gal4S6S(b1-4)GlcNAc,-0.069
same,glycan array binding signal (z-score),Gal6P(b1-4)GlcNAc,-0.161
same,glycan array binding signal (z-score),Gal6S(b1-3)GlcNAc,-0.24
same,glycan array binding signal (z-score),Gal6S(b1-3)GlcNAc6S,-0.193
same,glycan array binding signal (z-score),Gal6S(b1-4)Glc,-0.195
same,glycan array binding signal (z-score),Gal6S(b1-4)Glc6S,-0.104
same,glycan array binding signal (z-score),Gal6S(b1-4)GlcNAc,-0.198
same,glycan array binding signal (z-score),Gal6S(b1-4)GlcNAc6S,-0.166
same,glycan array binding signal (z-score),GalNAc(a1-3)Gal,-0.244
same,glycan array binding signal (z-score),GalNAc(a1-3)GalNAc,-0.233
